B1: PhoQ; a variant is named by its letters at X, in order, P23837 (parent)
chain: MKKLLRLFFPLSLRVRFLLATAAVVLVLSLAYGMVALIGYSVSFDKTTFRLLRGESNLFYTLAKWENNKLHVELPENIDKQSPTMTLIYDENGQLLWAQRDVPWLMKMIQPDWLKSNGFHEIEADVNDTSLLLSGDHSIQQQLQEVREDDDDAEMTHSVAVNVYPATSRMPKLTIVVVDTIPVELKSSYMVWSWFIYVLSANLLLVIPLLWVAAWWSLRPIEALAKEVRELEEHNRELLNPATTRELTSLVRNLNRLLKSERERYDKYRTTLTDLTHSLKTPLXXLQXXLRSLRSEKMSVSDAEPVMLEQISRISQQIGYYLHRASMRGGTLLSRELHPVAPLLDNLTSALNKVYQRKGVNISLDISPEISFVGEQNDFVEVMGNVLDNACKYCLEFVEISARQTDEHLYIVVEDDGPGIPLSKREVIFDRGQRVDTLRPGQGVGLAVAREITEQYEGKIVAGESMLGGARMEVIFGRQHSAPKDE

Some of the results follow.

The variants in this assay derive from B1. Put plainly: enrichment ratio after two sorts for PhoP signalling (ratio (wild type AVST 3.29)); higher = more functional. To be noted: with PhoP (E. coli).
Regarding HFIV, the enrichment ratio was ≤ 0.25.
The value for MHWD was ≤ 0.25; that for DYHA was ≤ 0.25; that for DAPY was ≤ 0.25.
The value for GTPF was ≤ 0.25.
In the case of ATEG, the enrichment ratio is ≤ 0.25.
The value for IEGS was ≤ 0.25.
Turning to GYTA, the enrichment ratio was ≤ 0.25.
In the case of MTPR, the enrichment ratio was ≤ 0.25.
The value for NVGP was ≤ 0.25; that for THVN was ≤ 0.25.
With FNKL, the enrichment ratio was ≤ 0.25.
In the case of SINQ, the enrichment ratio was determined as 0.587.
The value for SPYR was ≤ 0.25; that for WFFA was ≤ 0.25; that for WRRA was ≤ 0.25.
As to QSMD, the enrichment ratio was ≤ 0.25.
With KGCP, the enrichment ratio was ≤ 0.25.
With EPQD, the enrichment ratio was ≤ 0.25.
The value for QMPN was ≤ 0.25; that for TCVC was ≤ 0.25.
The value for SHTY was 0.976; that for NSRE was ≤ 0.25; that for FKIC was ≤ 0.25.
Turning to MGNP, the enrichment ratio is ≤ 0.25.
As to RWAD, the enrichment ratio is ≤ 0.25.
The value for IYYS was ≤ 0.25.
As for FYTI, the enrichment ratio is ≤ 0.25.
The value for TMHV was 0.946; that for YRDS was ≤ 0.25; that for RDIR was ≤ 0.25.
The value for MHQE was ≤ 0.25; that for REFP was ≤ 0.25.
As to IDIS, the enrichment ratio is ≤ 0.25.
The value for EGSP was ≤ 0.25; that for VWNA was ≤ 0.25; that for SFDK was ≤ 0.25.
The value for NKAQ was ≤ 0.25; that for PDAW was ≤ 0.25.
The value for AVVV was 2.93; that for YAGK was ≤ 0.25; that for HEDC was ≤ 0.25.
Turning to GSHN, the enrichment ratio is ≤ 0.25.
The value for NVSN was ≤ 0.25.
The value for FLGT was ≤ 0.25; that for LLPH was ≤ 0.25.
The value for FWWW was ≤ 0.25; that for IVSS was ≤ 0.25; that for LYEK was ≤ 0.25.
As for GIQS, the enrichment ratio was ≤ 0.25.
For SCVT, the enrichment ratio came out at 1.01.
The value for RDGQ was ≤ 0.25; that for PERD was ≤ 0.25.
Consider EGWW, for which the enrichment ratio was ≤ 0.25.
The value for DSIP was ≤ 0.25.
The value for HQYM was ≤ 0.25.
The value for LGPV was ≤ 0.25; that for TQWN was 10.1.
As for LEGW, the enrichment ratio is ≤ 0.25.
As for DRSM, the enrichment ratio was ≤ 0.25.
The value for QHGD was ≤ 0.25; that for MEQF was ≤ 0.25; that for QRTA was ≤ 0.25.
The value for DPMH was ≤ 0.25; that for HAQM was ≤ 0.25; that for VVMR was ≤ 0.25.
As to DRAV, the enrichment ratio was ≤ 0.25.
The value for KQYR was ≤ 0.25; that for VSFW was ≤ 0.25.
The value for FWVV was ≤ 0.25; that for LSGH was ≤ 0.25.
With TYKN, the enrichment ratio was ≤ 0.25.
On to VSMA, for which the enrichment ratio is ≤ 0.25.
On to KNLQ, for which the enrichment ratio was ≤ 0.25.
The value for HDNT was ≤ 0.25; that for LQCC was ≤ 0.25.
The value for TCAM was 8.72; that for YKCW was 8.39.
The value for AMQG was ≤ 0.25; that for GNWM was ≤ 0.25.
In the case of SHYC, the enrichment ratio was ≤ 0.25.
The value for TRES was ≤ 0.25; that for GRFL was ≤ 0.25.
The value for IMKS was ≤ 0.25.
As for LMLC, the enrichment ratio was ≤ 0.25.
The value for LMQN was ≤ 0.25.
The value for KNWF was ≤ 0.25.
In the case of KNSC, the enrichment ratio was ≤ 0.25.
The value for GMMA was ≤ 0.25.
Regarding QAKT, the enrichment ratio was ≤ 0.25.
The value for RSQM was ≤ 0.25.
The value for WKLD was ≤ 0.25.
The value for SGDH was ≤ 0.25; that for NQWH was ≤ 0.25.
On to IRQR, for which the enrichment ratio was ≤ 0.25.
On to LHLC, for which the enrichment ratio was ≤ 0.25.
As for VGLD, the enrichment ratio is ≤ 0.25.
The value for NVWI was ≤ 0.25; that for EVTT was ≤ 0.25.
Take HRAF: the enrichment ratio is ≤ 0.25.
As for YEPV, the enrichment ratio was ≤ 0.25.
The value for MEKT was ≤ 0.25; that for HRKN was ≤ 0.25.
The value for LSRT was ≤ 0.25.
As for IHNK, the enrichment ratio was ≤ 0.25.
For the variant LHGE, the enrichment ratio is ≤ 0.25.
On to YYWP, for which the enrichment ratio is ≤ 0.25.
The value for IKKG was ≤ 0.25.
As for ACGK, the enrichment ratio was ≤ 0.25.
The value for QMDW was ≤ 0.25; that for HEFR was ≤ 0.25; that for HQAS was ≤ 0.25.
The value for HSQW was ≤ 0.25.
The value for LVHE was ≤ 0.25; that for VGWM was 2.09; that for YKFK was ≤ 0.25.
As for KQLS, the enrichment ratio is ≤ 0.25.
The value for HYRP was ≤ 0.25; that for RKEI was ≤ 0.25; that for TEKG was ≤ 0.25.
The value for QSKK was ≤ 0.25; that for YGCP was ≤ 0.25.
The value for MFGL was ≤ 0.25; that for SLFR was ≤ 0.25.
On to QRVV, for which the enrichment ratio is ≤ 0.25.
The value for GEAA was 11.4; that for HWEH was ≤ 0.25; that for ARYF was ≤ 0.25.
Regarding GAAK, the enrichment ratio was ≤ 0.25.
The value for ALWL was ≤ 0.25.
Take FVDR: the enrichment ratio is ≤ 0.25.
Turning to TGPM, the enrichment ratio is ≤ 0.25.
Turning to RCKY, the enrichment ratio was ≤ 0.25.
The value for QINW was ≤ 0.25; that for VESD was ≤ 0.25; that for QEPT was ≤ 0.25.
Consider RYLF, for which the enrichment ratio was ≤ 0.25.
GVRS: the enrichment ratio is ≤ 0.25.
The value for QRFA was ≤ 0.25.
The value for WSQK was ≤ 0.25.
The value for EVIP was ≤ 0.25; that for FYKR was ≤ 0.25.
With WYSP, the enrichment ratio was ≤ 0.25.
The value for EPMM was ≤ 0.25.
As to FKYI, the enrichment ratio was found to be 1.2.
The value for EYAA was ≤ 0.25; that for GWEV was ≤ 0.25; that for ANWA was ≤ 0.25.
Consider LDLY, for which the enrichment ratio was ≤ 0.25.
KQFY: the enrichment ratio is ≤ 0.25.
The value for YCWI was ≤ 0.25.
Regarding IISI, the enrichment ratio was ≤ 0.25.
The value for YAWN was ≤ 0.25.
The value for ASAM was 20.2; that for GPEL was ≤ 0.25.
Regarding GMDV, the enrichment ratio is ≤ 0.25.
The value for PLIT was ≤ 0.25; that for LFGN was ≤ 0.25; that for LYQT was ≤ 0.25.
The value for IRHL was ≤ 0.25.
Regarding VMTV, the enrichment ratio was ≤ 0.25.
Take MMFK: the enrichment ratio is ≤ 0.25.
Turning to ITHY, the enrichment ratio is ≤ 0.25.
The value for TLMC was 4.84.
In the case of RDCC, the enrichment ratio is ≤ 0.25.
Regarding FNDA, the enrichment ratio was ≤ 0.25.
The value for RLND was ≤ 0.25; that for GNTH was ≤ 0.25; that for PHST was ≤ 0.25.
For the variant QELL, the enrichment ratio is ≤ 0.25.
The value for NVGW was ≤ 0.25.
Consider HVWM, for which the enrichment ratio was ≤ 0.25.
The value for GEHN was ≤ 0.25; that for KKNP was ≤ 0.25.
Regarding IKFT, the enrichment ratio was ≤ 0.25.
Regarding TDFD, the enrichment ratio is ≤ 0.25.
For the variant FSRR, the enrichment ratio is ≤ 0.25.
Take LALI: the enrichment ratio was found to be 4.76.
The value for DTKS was ≤ 0.25.
The value for GMTW was ≤ 0.25.
In the case of NLPG, the enrichment ratio was ≤ 0.25.
The value for FFGM was ≤ 0.25.
The value for DKRM was ≤ 0.25.
The value for RWGP was ≤ 0.25; that for TKCT was 38.2.
For the variant LDMN, the enrichment ratio is ≤ 0.25.
The value for TQSG was 22.2; that for SPDV was ≤ 0.25.
In the case of QHMK, the enrichment ratio is ≤ 0.25.
The value for FRDN was ≤ 0.25; that for FMKH was ≤ 0.25; that for CHRK was ≤ 0.25.
Consider TVDM, for which the enrichment ratio is ≤ 0.25.
Take FYVG: the enrichment ratio was ≤ 0.25.
The value for DSYW was 0.671.

The values above are taken from a collection of fitness landscapes (doi:10.1126/science.1257360).
